The chains are these.
B1: UUUCGCA (DNA:RNA)
RNA: GGGAGACCGGAAUUCAGAUUGUCCUUUCGCAUUAAAUCCCGUCGUAGCCACCA
DNA 1: CAATCTGAATTCCGGTCTCCC
DNA 2: TGGTGGCTACGACGGGATT
B2: ACGACGG (DNA:RNA)
RNA: GGGAGACCGGAAUUCAGAUUGUCCACGACGGUUAAAUCCCGUCGUAGCCACCA
DNA 1: CAATCTGAATTCCGGTCTCCC
DNA 2: TGGTGGCTACGACGGGATT
B3: ACUUCCC (DNA:RNA)
RNA: B2 RNA with G27U, A28U, G30C, G31C
DNA 1: CAATCTGAATTCCGGTCTCCC
DNA 2: TGGTGGCTACGACGGGATT
B4: UGGGCGA (DNA:RNA)
RNA: B2 RNA with A25U, C26G, A28G, G31A
DNA 1: CAATCTGAATTCCGGTCTCCC
DNA 2: TGGTGGCTACGACGGGATT
B5: AGCUCUC (DNA:RNA)
RNA: B2 RNA with C26G, G27C, A28U, G30U, G31C
DNA 1: CAATCTGAATTCCGGTCTCCC
DNA 2: TGGTGGCTACGACGGGATT
B6: AGGUUCC (DNA:RNA)
RNA: B2 RNA with C26G, A28U, C29U, G30C, G31C
DNA 1: CAATCTGAATTCCGGTCTCCC
DNA 2: TGGTGGCTACGACGGGATT
B7: GAUAACG (DNA:RNA)
RNA: B2 RNA with A25G, C26A, G27U, C29A, G30C
DNA 1: CAATCTGAATTCCGGTCTCCC
DNA 2: TGGTGGCTACGACGGGATT
B8: UCUUUGA (DNA:RNA)
RNA: B1 RNA with U26C, C28U, G29U, C30G
DNA 1: CAATCTGAATTCCGGTCTCCC
DNA 2: TGGTGGCTACGACGGGATT
B9: ACGCAAC (DNA:RNA)
RNA: B2 RNA with A28C, C29A, G30A, G31C
DNA 1: CAATCTGAATTCCGGTCTCCC
DNA 2: TGGTGGCTACGACGGGATT
B10: GAAUAAG (DNA:RNA)
RNA: B2 RNA with A25G, C26A, G27A, A28U, C29A, G30A
DNA 1: CAATCTGAATTCCGGTCTCCC
DNA 2: TGGTGGCTACGACGGGATT
B11: ACACUCG (DNA:RNA)
RNA: B2 RNA with G27A, A28C, C29U, G30C
DNA 1: CAATCTGAATTCCGGTCTCCC
DNA 2: TGGTGGCTACGACGGGATT
B12: CUCGCCG (DNA:RNA)
RNA: B2 RNA with A25C, C26U, G27C, A28G, G30C
DNA 1: CAATCTGAATTCCGGTCTCCC
DNA 2: TGGTGGCTACGACGGGATT
B13: GACUAAA (DNA:RNA)
RNA: B1 RNA with U25G, U26A, U27C, C28U, G29A, C30A
DNA 1: CAATCTGAATTCCGGTCTCCC
DNA 2: TGGTGGCTACGACGGGATT
B14: CUUCUGA (DNA:RNA)
RNA: B1 RNA with U25C, G29U, C30G
DNA 1: CAATCTGAATTCCGGTCTCCC
DNA 2: TGGTGGCTACGACGGGATT
B15: ACGACCU (DNA:RNA)
RNA: B2 RNA with G30C, G31U
DNA 1: CAATCTGAATTCCGGTCTCCC
DNA 2: TGGTGGCTACGACGGGATT
B16: CCUCGUA (DNA:RNA)
RNA: B1 RNA with U25C, U26C, C30U
DNA 1: CAATCTGAATTCCGGTCTCCC
DNA 2: TGGTGGCTACGACGGGATT
B17: CGCGGCU (DNA:RNA)
RNA: B1 RNA with U25C, U26G, U27C, C28G, A31U
DNA 1: CAATCTGAATTCCGGTCTCCC
DNA 2: TGGTGGCTACGACGGGATT
B18: CCCCUGU (DNA:RNA)
RNA: B2 RNA with A25C, G27C, A28C, C29U, G31U
DNA 1: CAATCTGAATTCCGGTCTCCC
DNA 2: TGGTGGCTACGACGGGATT
B19: UAAGAAG (DNA:RNA)
RNA: B2 RNA with A25U, C26A, G27A, A28G, C29A, G30A
DNA 1: CAATCTGAATTCCGGTCTCCC
DNA 2: TGGTGGCTACGACGGGATT
B20: AGGCUGU (DNA:RNA)
RNA: B2 RNA with C26G, A28C, C29U, G31U
DNA 1: CAATCTGAATTCCGGTCTCCC
DNA 2: TGGTGGCTACGACGGGATT
B21: GCGAUCG (DNA:RNA)
RNA: B2 RNA with A25G, C29U, G30C
DNA 1: CAATCTGAATTCCGGTCTCCC
DNA 2: TGGTGGCTACGACGGGATT
B22: ACGCAAG (DNA:RNA)
RNA: B2 RNA with A28C, C29A, G30A
DNA 1: CAATCTGAATTCCGGTCTCCC
DNA 2: TGGTGGCTACGACGGGATT
B23: CGCUUGC (DNA:RNA)
RNA: B2 RNA with A25C, C26G, G27C, A28U, C29U, G31C
DNA 1: CAATCTGAATTCCGGTCTCCC
DNA 2: TGGTGGCTACGACGGGATT
B24: UUGAUGG (DNA:RNA)
RNA: B2 RNA with A25U, C26U, C29U
DNA 1: CAATCTGAATTCCGGTCTCCC
DNA 2: TGGTGGCTACGACGGGATT
B25: AAACAUC (DNA:RNA)
RNA: B2 RNA with C26A, G27A, A28C, C29A, G30U, G31C
DNA 1: CAATCTGAATTCCGGTCTCCC
DNA 2: TGGTGGCTACGACGGGATT
B26: UUACCUG (DNA:RNA)
RNA: B1 RNA with U27A, G29C, C30U, A31G
DNA 1: CAATCTGAATTCCGGTCTCCC
DNA 2: TGGTGGCTACGACGGGATT
B27: GAUAUUA (DNA:RNA)
RNA: B1 RNA with U25G, U26A, C28A, G29U, C30U
DNA 1: CAATCTGAATTCCGGTCTCCC
DNA 2: TGGTGGCTACGACGGGATT
B28: UUCUUGU (DNA:RNA)
RNA: B1 RNA with U27C, C28U, G29U, C30G, A31U
DNA 1: CAATCTGAATTCCGGTCTCCC
DNA 2: TGGTGGCTACGACGGGATT
B29: GCGCGAU (DNA:RNA)
RNA: B2 RNA with A25G, A28C, C29G, G30A, G31U
DNA 1: CAATCTGAATTCCGGTCTCCC
DNA 2: TGGTGGCTACGACGGGATT
B30: AUGAAAA (DNA:RNA)
RNA: B2 RNA with C26U, C29A, G30A, G31A
DNA 1: CAATCTGAATTCCGGTCTCCC
DNA 2: TGGTGGCTACGACGGGATT
B31: ACGAAUG (DNA:RNA)
RNA: B2 RNA with C29A, G30U
DNA 1: CAATCTGAATTCCGGTCTCCC
DNA 2: TGGTGGCTACGACGGGATT

Positions count from the first letter of the chain named. This is one part of the list.

Consider 31 molecules from paper PMC9911399, “Two distinct binding modes provide the RNA-binding protein RbFox with extraordinary sequence specificity”.

This experiment has as its target T1, RBFOX1 RRM (Homo sapiens, UniProt Q9NWB1 109-208).
T1 sequence: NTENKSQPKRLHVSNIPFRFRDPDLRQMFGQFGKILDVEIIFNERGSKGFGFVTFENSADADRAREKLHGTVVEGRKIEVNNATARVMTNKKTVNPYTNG
The experiment is described as follows: EMSA; HiTS-Eq, 1 nM pool, 10 min; buffer printed only for the single-RNA assays: 10 mM Tris pH 7.5, 150 mM NaCl, 3.4 mM EDTA, 0.001% NP-40, 30 C. As to conditions: tags: His6 N-terminal (pET28a); label: 5' 32P. The method in brief:
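Relative association constants, normalised to the cognate motif, were derived by comparing read counts of each RNA species with those of the control reaction. The RNA sequenced was the free fraction, separated by 8% native PAGE after a 10 min equilibration in 50 µL of 1 nM 5′-radiolabelled RNA (7 randomized nucleotides) with increasing concentrations of purified wild-type or mutant RbFox RRM.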
In general terms: Mobility shift assays separate free from complexed probe on a gel.
Take B1: the binding signal was 0.0125 KA relative to UGCAUGU.

In the case of B2, the binding signal is 0.0147 KA relative to UGCAUGU. With B3, the binding signal is 0.00296 KA relative to UGCAUGU. B4: the binding signal was 0.029 KA relative to UGCAUGU. For B5 the value was 0.00667 KA relative to UGCAUGU; for B6, 0.0132 KA relative to UGCAUGU; for B7, 0.0119 KA relative to UGCAUGU. For B8 the value was 0.0194 KA relative to UGCAUGU; for B9, 0.00681 KA relative to UGCAUGU; for B10, 0.00785 KA relative to UGCAUGU.

Take B11: the binding signal is 0.00238 KA relative to UGCAUGU. For B12 the value was 0.00773 KA relative to UGCAUGU; for B13, 0.00357 KA relative to UGCAUGU; for B14, 0.0251 KA relative to UGCAUGU. On to B15, for which the binding signal was 0.00588 KA relative to UGCAUGU. With B16 the figure was 0.00353 KA relative to UGCAUGU; with B17, 0.016 KA relative to UGCAUGU; with B18, 0.0053 KA relative to UGCAUGU. With B19 the figure was 0.00847 KA relative to UGCAUGU; with B20, 0.0144 KA relative to UGCAUGU.

With B21, the binding signal is 0.0184 KA relative to UGCAUGU.

In the case of B22, the binding signal is 0.0129 KA relative to UGCAUGU. With B23 the figure was 0.032 KA relative to UGCAUGU. For B24 the value was 0.0169 KA relative to UGCAUGU; for B25, 0.000413 KA relative to UGCAUGU. As to B26, the binding signal is 0.0109 KA relative to UGCAUGU. For B27 the value was 0.00195 KA relative to UGCAUGU; for B28, 0.0153 KA relative to UGCAUGU.

As to B29, the binding signal was 0.0163 KA relative to UGCAUGU. With B30 the figure was 0.00408 KA relative to UGCAUGU. With B31 the figure was 0.021 KA relative to UGCAUGU.
